Data on 7 compounds can be found in patent publication US7879568B2, “Method for the diagnosis and prognosis of demyelinating diseases” (Universidad Del Pais Vasco, priority 2005, dated 2011).

Like-named read-outs stand apart in the source and are kept apart here.

Common to all, as to type: cell-based, rat
Experiment [1] has as its system oligodendrocytes. The experiment can be described thus: oligodendroglial death in vitro after inhibition of glutamate transporters. The protocol:
Cell cultures were prepared from 12 days-old rat optic nerve following standard protocols, which have been adapted and introduced into the laboratory as recently reported (Matute et al., 1997, Proc. Natl. Acad. Sci. USA 94: 8830-8835).

For experiment [2], the system named is GLAST and GLT-1 glutamate transporters. The experiment can be described thus: whole cell patch clamp recording of glutamate transporter currents in cultured oligodendrocytes. To be noted: oligodendrocytes, voltage clamp at −70 mV. The method, then: Electrophysiological recordings were carried out on 2 to 5 days-old cultures, following previously published protocols (Patneau et al., 1994, Neuron 12, 357-371). Cells were registered in a chamber which allows changing the composition of the extracellular medium by means of constant flow (0.5 to 1 ml/minute). Registering electrodes used were glass capillaries containing specific solutions compatible with cytoplasmic ionic concentrations. The study of the responses mediated by the glutamate transporters was carried out using whole cell patch clamp.
In general terms: Patch clamp records ionic current or voltage across a cell membrane.

Experiment [3] has the same test system. The source says:
In order to characterize the subtype of transporter, tritiated glutamate uptake assays and immunocytochemistry were used.

With `CNC(=O)N1N=C(c2ccc(N)cc2)c2cc3c(cc2C[C@H]1C)OCO3` [LY303070], the “effect on TBOA-induced oligodendroglial death” value in experiment [1] (LY303070 50 μM) is “reduced to a large extent”. For the compound `N#Cc1cc2c(cc1[N+](=O)[O-])=NC(=O)C(=O)N=2` [CNQX, 6-cyano-7-nitroquinoxalin-2,3-dione], the “effect on TBOA-induced oligodendroglial death” value in experiment [1] (CNQX 30 μM) is “blocked”.

In the case of `N[C@@H](CCC(=O)O)C(=O)O` [glutamate], in experiment [2], the “permanent, non-desensitizing current, mean amplitude” value is listed as 16.54±1.66 pA. Consider concanavalin A, for which the “effect on TBOA-induced oligodendroglial death” value in experiment [1] (ConA 10 μM) is on record as “enhanced”. What is called EC50 is the concentration needed to bring the measured effect to its halfway point. `N[C@H](C(=O)O)[C@H](OCc1ccccc1)C(=O)O` (racemic) [TBOA, DL-threo-β-benzyloxyaspartate]: the EC50 in experiment [1] (TBOA 100 nM to 1 mM, 24 h, alone) was 10.9 µM; in experiment [1] (TBOA in the presence of cyclothiazide (CTZ; 100 μM)), 5.5 µM. In addition, in experiment [1] (TBOA alone or in the presence of CTZ (100 μM) or ConA (10 μM)), the “chromatin condensation and caspase-3 activation in dying oligodendrocytes” value was “produces chromatin condensation and activation of caspase-3”. For the same compound, the “effect on sodium-dependent uptake of glutamate in oligodendrocytes” value in experiment [3] is “totally inhibited”.

As to `N[C@@H](CC(=O)O)C(=O)O` [aspartate], in experiment [2], the “permanent, non-desensitizing current, mean amplitude” value was determined as 14.26±2.41 pA. In the case of `CC(C)[C@H]1CN[C@H](C(=O)O)[C@H]1CC(=O)O` [DHK, dihydrokainate], the “effect on sodium-dependent uptake of glutamate in oligodendrocytes” value in experiment [3] (tritiated glutamate uptake) is given as “only partially inhibited”.
